Experimental data taken from the supplement of paper PMC12217912.
The list shows a part of the results. The full chains were built here from the parent and the listed change. Values near 0.05 are background.

B1: TEV protease; numbered along this chain (parent)
chain: MGESLFKGPRDYNPISSSICHLTNESDGHTTSLYGIGFGPFIITNKHLFRRNNGTLVVQSLHGVFKVKDTTTLQQHLVDGRDMIIIRMPKDFPPFPQKLKFREPQREERICLVTTNFQTKSMSSMVSDTSCTFPSGDGIFWKHWIQTKDGQCGSPLVSTRDGFIVGIHSASNFTNTNNYFTSVPKNFMELLTNQEAQQWVSGWRLNADSVLWGGHKVFMVKPEEPFQPVKEATQL

Variants of: B1
Test: raw area under fraction-flipped curve 0-4 h after induction (AUC4h, not background-subtracted), DNA-recorder readout of cleavage of the substrate (dimensionless); higher = more cleavage of the substrate by the protease variant
Conditions: temperature: 34 °C; time window: 0-4 h after rhamnose induction
Description: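 In vivo DNA recorder in E. coli TOP10(DE3) ΔrhaA at 34 °C. Each TEVp single-site mutant (parent TEVp 0) is paired with a single-site variant of the 7-mer TEVs (canonical ENLYFQ|S). The substrate sits between flexible linkers in a Bxb1-sfGFP-TEVs-SsrA fusion, so cleavage stabilises Bxb1 and speeds flipping of a recombination array, read by NGS. The value is the raw area under the fraction-flipped curve over 0-4 h after rhamnose induction (AUC4h), with ≥20 reads per time point. It is not background-subtracted; inactive controls average about 0.047.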
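Further: Bxb1 expression induced with 0.2% (w/v) L-rhamnose at OD600 near 0.5, cultures sampled hourly, flipped fraction per protease–substrate barcode pair counted by paired-end Illumina sequencing.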

Variant	area with substrate ENAYFQS	area with substrate ENCYFQS	area with substrate ENDYFQS	area with substrate ENEYFQS	area with substrate ENFYFQS	area with substrate ENKYFQS	area with substrate ENNYFQS	area with substrate ENPYFQS	area with substrate ENQYFQS	area with substrate ENRYFQS	area with substrate ENSYFQS	area with substrate ENTYFQS	area with substrate ENVYFQS	area with substrate ENGYFQS	area with substrate ENIYFQS	area with substrate ENMYFQS	area with substrate ENYYFQS	area with substrate ENHYFQS	area with substrate ENWYFQS
MGESLFKGPRDYNPISSSICHLTNESDGHTTSLYGIGFGPFIITNKHLFRRNNGTLVVQSLHGVFKVKDTTTLQQHLVDGRDMIIIRMPKDFPPFPQKLKFREPQREERICLVTTNFQTKSMSSMVSDTSCTFPSGDGIFWKHWIQTKDGQCGSPLVSTRDGFIVGIHSASNFTNTNNYFTSVPKNFMELLTNQEAQQWVSGWRLNNDSVLWGGHKVFMVKPEEPFQPVKEATQL [A207N]	0.0699	0.082	0.0637	0.0473	0.0624	0.0697	0.0594	0.053	0.0575	0.0605	0.0597	0.0502	0.0659						
MGESLFKGPRDYNPISSSICHLTNESDGHTTSLYGIGFGPFIITNKHLFRRNNGTLVVQSLHGVFKVKDTTTLQQHLVDGRDMIIIRMPKDFPPFPQKLKFREPQREERICLVTTNFQTKSMSSMVSDTSCTFPSGDGIFWKHWIQTKDGQCGSPLVSTRDGFIVGIHSASNFTNTNNYFTSVPKNFMELLTNQEAQQWVSGWRLNADFVLWGGHKVFMVKPEEPFQPVKEATQL [S209F]	0.0691	0.0766	0.0516	0.0697			0.0647		0.0581	0.0509	0.0549		0.0741	0.0651	0.097	0.0754	0.0577		
MGESLFKGPRDYNPISSSICHLTNESDGHTTSLYGIGFGPFIITNKHLFRRNNGTLVVQSLHGVFKVKDTTTLQQHLVDGRDMIIIRMPKDFPPFPQKLKFREPQREERICLVTTNFQTKSMSSMVSDTSCTFPSGDGIFWKHWIQTKDGQCGSPLVSTRDGFIVGIHSASNFTNTNNYFTSVPKNFMELLTNQEAQQWVSGWRLNADSCLWGGHKVFMVKPEEPFQPVKEATQL [V210C]	0.056	0.0656	0.0625	0.0655	0.0648	0.0596	0.06		0.0623	0.0573	0.0617	0.0643	0.0618	0.0464	0.099	0.0644	0.0579	0.0533	
MGESLFKGPRDYNPISSSICHLTNESDGHTTSLYGIGFGPFIITNKHLFRRNNGTLVVQSLHGVFKVKDTTTLQQHLVDGRDMIIIRMPKDFPPFPQKLKFREPQREERICLVTTNFQTKSMSSMVSDTSCTFPSGDGIFWKHWIQTKDGQCGSPLVSTRDGFIVGIHSASNFTNTNNYFTSVPKNFMELLTNQEAQQWVSGWRLNADSQLWGGHKVFMVKPEEPFQPVKEATQL [V210Q]	0.0621	0.0546	0.0718	0.0578	0.0588	0.07	0.0612		0.0593	0.0428	0.0675	0.0605	0.0647	0.0682	0.0835			0.0603	0.0751
